Measurements as given in publication PMC12136788.
Some of the results follow.

B1: chr3:148802587:148802588:-_ENSG00000071794_ENST00000310053|hu_mus|hu_hu_hu_mus_False|58_108 (ssRNA)
RNA: GGGAGUUCUACAGUCCGACGAUCUCCAACCACAUGACCUCUCAUAGUUCCAAAUAAAACCAAAUCUUGCUCUUCAUCACUAGUUAGGAAGUCAUCUGGAGGAAUAAUGUCUUGGAAUUCAAAAUGUGGCAAGAAAGUUGAGUACAACAGAGGAUUGAGCAUCA
B2: 130596237_130596357_540_3pUTR_ENSMUSG00000031256_ENSMUST00000033609|mouse|control|control (ssRNA)
RNA: GGGAGUUCUACAGUCCGACGAUCCAUCAACUCAAACAUCUGUUCUGGUGGAAGACUGGCAACUGCUUUGCUAAUGGAUUCAGGGGCAUCCUCAGGGCUGAUGCUUUCUCCAUAAGGUGACUCUAUGACAGGUGCACCAGUGCCCAACAGAGGAUUGAGCAUCA
B3: chr15:81306141:81306142:+_ENSMUSG00000022400_ENSMUST00000023036|mus_mus|FALSE|FALSE (ssRNA)
RNA: GGGAGUUCUACAGUCCGACGAUCAGUACCUGGGAUUACAGGCAUAUAUGCAAACUGUCCAAACAUCAGUUUUCAGGUGAACUUUAUGAUGACUUUAUUGCCAGCCAAGAUUACACAGUACGAUUUUUUGGGUCAACUUUUGUUCAACAGAGGAUUGAGCAUCA
B4: chr11:29999759:29999760:-_ENSMUSG00000020315_ENSMUST00000011877|mus_mus|FALSE|FALSE (ssRNA)
RNA: GGGAGUUCUACAGUCCGACGAUCAUACACUUAGCAAUGAUUUAAAGGGUUUAUUAUACAUCUAGUUUAUUAUACUUUGUACUAGAAUUAUCUCAAACAUACAAUAUAAUGUAUUUCAGAAAAAAAGAGACUGAAAUUACAGAUCAACAGAGGAUUGAGCAUCA
B5: 31148763_31148883_1967_3pUTR_ENSMUSG00000062661_ENSMUST00000000199|mouse|control|control (ssRNA)
RNA: GGGAGUUCUACAGUCCGACGAUCACAUGCCACACCUACCCAGCCUCUUAGCAUCAGGGAGGCUGAGGCCAGCAGUUUGCAGGGAAACCCACUUCAUACGCUCUCUACUGUGUGCCGGACACACUCUCCUAGCUCCUACUCUCACAACAGAGGAUUGAGCAUCA
B6: chr14:35182089:35182090:-_ENSG00000165410_ENST00000422678|hu_mus|FALSE|FALSE (ssRNA)
RNA: GGGAGUUCUACAGUCCGACGAUCCUUAAGAUCAAAUGGCACUUGGCUAUUAUUUUAUAGUGGCUUUCCUUCAAGGGAAACUACAACACUGCCCCCCAGUUUCUCUCCCAGCGUCGAGCGGUCCUUAAUAUCGUCCAAGCCAUUCAACAGAGGAUUGAGCAUCA
B7: chr17:87833181:87833182:-_ENSMUSG00000036438_ENSMUST00000040440|perfect_dup|motif|central (ssRNA)
RNA: GGGAGUUCUACAGUCCGACGAUCAGGGCUUAGAUAUAUCCAGAGUAAGCCACAUGCAACAUGUUACUUGAUCAAUUUUCGGAAAUAAGGUUUUAGGACAAUGACAGUAAGAUAAGGGAAGAAAACAUGGAGGAAUGAAGUCCUCAACAGAGGAUUGAGCAUCA
B8: chr8:101932682:101932683:-_ENSG00000164924_ENST00000353245|hu_mus|FALSE|FALSE (ssRNA)
RNA: GGGAGUUCUACAGUCCGACGAUCGACAUGGAAGCAGUUUUAACACUGGCCCUUCUGAAGCCACAAUGUACCAAAAGUACUAUGCCAAACAUGUGUAACUCAUGUAAAAAUUCCACAUCCCAUAUUGGCCACCUCAAGAUGAAACAACAGAGGAUUGAGCAUCA
B9: chr2:117085000:117085001:+_ENSMUSG00000027349_ENSMUST00000028825|mus_mus|FALSE|FALSE (ssRNA)
RNA: GGGAGUUCUACAGUCCGACGAUCGCGCUCUUUAAUGUCUCCUGAGACGAGUACCGAGUAUGGACAGGCCAUCUCUUUUAAAAACCCACUUAUCUCAAGCUGGAAGCUCUCUAGGUCAUCUCUCCCAGCUGAAGUGAUGCUUUCCAACAGAGGAUUGAGCAUCA
B10: chr6:41757443:41757444:+_ENSG00000214736_ENST00000398881|hu_mus|hu_hu_hu_mus_False|18_68 (ssRNA)
RNA: GGGAGUUCUACAGUCCGACGAUCGAACCGUGCAGAGGCAACAUCUCAGCCGACACUGGGGGAUGGGGGAACAAAAGGGGGGGGUUCAGGCAAGGAGAGGGAGUCAACUUCAGCUGCUCAAACUUCAGGAUCUUGUGGUCACAGCAACAGAGGAUUGAGCAUCA
B11: chr1:171556206:171556207:+_ENSG00000117523_ENST00000495585|hu_hu|FALSE|FALSE (ssRNA)
RNA: GGGAGUUCUACAGUCCGACGAUCGUGCUUGGGGAGUGGUAUGCUGUAAUGGGGGCUGAAGAGUCUGAGGCAAAGCAAUUAGAGGUUGCCCUGUAGAUCCAAAAUUAGGCAAGGAAAGCUGCGAUGCUGGUAAAGGUACUGUAACAACAGAGGAUUGAGCAUCA
B12: chr2:210595268:210595269:+_ENSG00000078018_ENST00000392194|hu_hu|FALSE|FALSE (ssRNA)
RNA: GGGAGUUCUACAGUCCGACGAUCUGUAAAGCCAGUGUCUUCCUGUUGCAAAUGGAAAUCAGGUCAAUUUCUGCAUGUACUAUUCAUUUUUUAAAUAGAAAAUUGUAACAAUUACUACAGUUUGGGGAUGAGAUUAUUUAUUUUCAACAGAGGAUUGAGCAUCA
B13: chr13:85359083:85359084:-_ENSMUSG00000021549_ENSMUST00000109552|mus_hu|motif|central (ssRNA)
RNA: GGGAGUUCUACAGUCCGACGAUCGGGCUCCUUAGCUCCAAAUUCCACAAGAUUUGCUAAGUUCUGCACAGAUUUAGCCACGGAUAUCAGUGUUCUUGCAGCAAUAGGAGAUGGAGAAUCUGAGAUGAUAUUGAACAUCCGUGGCAACAGAGGAUUGAGCAUCA
B14: chr11:118370577:118370578:+_ENSG00000118058_ENST00000534358|hu_hu|FALSE|FALSE (ssRNA)
RNA: GGGAGUUCUACAGUCCGACGAUCCUGAUAUCCAAUAGGAAAGAGCUUAUCUUCACAGUCGGAGAGAUCAUUUAGAAUUCCUAAGCAGUCGAUUGUCAUAGACCCAAUCAUCAUGUGGAUAUUUUCUGGUUCCAAGCCAUUGAGCAACAGAGGAUUGAGCAUCA

What follows are binders tested against T1, UNK ZnF1-3 (human, UniProt Q9C0B0 31-174) (assay: nsRBNS (natural sequence RNA bind-n-seq); RBNS binding buffer (assumed for nsRBNS): 25 mM Tris pH 7.5, 150 mM KCl, 3 mM MgCl2, 0.01% Triton X-100, 500 ug/ml BSA, 20 U/ml SUPERase-In, 4 C; UNK is unkempt and MSI1 is Musashi-1; names of the RNAs are library labels; protein concentration not given here; high values mean tight binding).
T1 sequence: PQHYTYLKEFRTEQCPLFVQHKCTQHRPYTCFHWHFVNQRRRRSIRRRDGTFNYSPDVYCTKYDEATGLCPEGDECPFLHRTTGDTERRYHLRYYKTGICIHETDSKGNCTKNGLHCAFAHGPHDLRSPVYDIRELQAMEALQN
For B1, the binding signal was 1.2 enrichment R. For B2, the binding signal was 1.6 enrichment R. B3 showed a binding signal of 0.605 enrichment R. With B4 the binding signal was 1.2 enrichment R. In the case of B5, the binding signal is reported as 1.14 enrichment R. B6 gave a binding signal of 1.08 enrichment R. With B7 the binding signal was 2.55 enrichment R. In the case of B8, the binding signal is reported as 1.29 enrichment R. Work on B9 yielded a binding signal of 0.591 enrichment R. Binder B10 has a binding signal of 2.09 enrichment R. With B11 the binding signal was 1.71 enrichment R. For B12, the binding signal was 2 enrichment R. With B13 the binding signal was 0.821 enrichment R. B14 gave a binding signal of 1.69 enrichment R.
